# Assay results taken from the supplement of paper PMC11417369.
# The other results are listed elsewhere or left out.
# Test system: PfAP2-HC AP2 domain (GST-tagged)
# Experiment: gcPBM binding intensity (ln(normalized median fluorescence intensity)); higher = stronger DNA binding
# Procedure, shortened: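 DNA-binding domains from P. falciparum, fused to GST and produced in E. coli, were put on an Agilent 4 × 180k double-stranded probe array for 1 h in 1× PBS holding 1% milk, 0.2 mg/ml BSA, 0.5% salmon testes DNA and 0.03% Triton X-100. Probes were primer-extended, 36 bp long and drawn from intergenic genomic regions, with negative controls included. After Alexa488 anti-GST antibody detection and a 488 nm scan, binding intensity was set as the highest Masliner-normalised natural-log median intensity across replicate spots of either probe orientation.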
row,Sequence,gcPBM binding intensity (ln)
1,ATATATAATTATTGAAGTACTTGTTCATAAAATGGT [XGTACX_site5656],9.5
2,TATATGAGCATAAAGACACACAAATAAAACCAAACA [CACACA_site3856],9.98
3,AAAATAAAATGAAAACGTACATGATAAATTTTAATT [XGTACX_site4199],9.76
4,ATATTATAAATATAATGTACGTTTTAATTTCATGTT [XGTACX_site3557],9.61
5,TACTACACACATTCATGTACTTGATAAATTAATGAT [XGTACX_site6444],9.76
6,ATAACTAATATGAAATGTACCCATCAAAGTGTGCAT [XGTACX_site4463],9.68
7,TAATTTGTTATTTATTGTACAAACATTATATGTTAA [XGTACX_site6637],9.57
8,AAAATTAAAATACGTACACACCTTATCTTTTTGGCT [CACACA_site4311],9.79
9,AGAACAATTCTGTGGTGTACCAAAAAAAATTTAATT [XGTACX_site8082],9.8
10,TAAATGAATTTTACTATACACACGTATACATTTGTA [CACACA_site1210],9.82
11,AAAATAAATAAATATACACACCATATTTATATTTTT [CACACA_site7361],9.79
12,ATATTTAAATTTTGCACACGCATATGAAATTAGGAC [CACACA_site1035],9.85
13,ATTTTGCCTGACCCATGTACATATTATTTTTTGCAT [XGTACX_site2258],10.5
14,CTATGAATAGGAAAAAGTACTAAACCTTTATATATA [XGTACX_site5022],9.49
15,CACATAAAAATTGTGTTGCACTTTTATTCTTATATC,9.89
16,AGTAGAATATCCCCTACACACCCAAATAATTTACAA [CACACA_site8339],10.3
17,TTTATATATTTTAGGTGTACATAAATTTTTATATAT [XGTACX_site5597],9.63
18,AACTTACTTGGACATACACACATATATATATATATA [CACACA_site2978],9.92
19,TCAAATATTCATAAATGTACATTTATTTTTCTCCTT [XGTACX_site5827],9.72
20,TAACTTAATATTAATGCACACAATTTATATATATAT [CACACA_site3903],9.78
21,GAAACATACATTTTTTGTCCGTAAGTATTATAATAA [XGTACX_site3273],9.57
22,ATACATCAAGGACACACACACACACCCACACCCACA [CACACA_site8013],11.1

row,Sequence,gcPBM binding intensity (ln)
1,AATGCAAAGGTGAAAGAACACACAAAAAAAAAAAAA [CACACA_site9333],9.58
2,GTGTTAAATTTTTGAACATGCAAGTTTTATTATTGA [TGCATGCA_site478],9.44
3,TTTTGTTGAAAAAAAAAAAAAAAATTAAATTAAATT [GTGCAC_negctrl_site636],9.15
4,CATAGACACGAACATACACACGGACATACATACGGA [CACACA_site8101],9.95
5,GTAACAAATTAATAGTGTACATATTTTAAAAAAATA [XGTACX_site7150],9.66
6,GTGTGCTTTTTACGAGTGCAAGTATTTTGGTGGTTA [GTGCAC_site9496],9.83
7,GTACACATATAATATACACACAACAAATATGCACAT [CACACA_site1010],10.1
8,TAATTTTTATTTATAATAATATATGACATATATCCA [XGTACX_negctrl_site359],9.56
9,ATGAACAAAATGTAATGTACGAATAATTATTCATAT [XGTACX_site4812],9.8
10,TTTTATTCCTATTTATTTATATTTTTGTCTTATATC [CACACA_negctrl_site125],9.88
11,TTAAGAATATCTACATGTACATACCAAAGAAATACA [XGTACX_site3125],9.56
12,TAATTTTTTTTTTTTTTTTTTTTTTTTTTTTTCCTT [CACACA_negctrl_site1095],8.98
13,GGAATAATATAAAACACACACATAAATATAAATATA [CACACA_site3376],10.7
14,TATAGACAAACACATACATGCATACATACATACATA [TGCATGCA_site273],9.75
15,AAAAAAAAGTTCTACACACACAAAAAAATATTTTTT [CACACA_site2309],10.2
16,AATGTCAATTTTAATAGTACACAAATATATATATAT [XGTACX_site521],9.59
17,AATGACCATTTTTAAAATTACAAATACATACAACTG [TGCATGCA_negctrl_site420],9.57
18,AAGTATTATTATAAGACACACATGTATTTAAGTATA [CACACA_site4922],9.9
19,AATACATATTCAAAGGTGCAAAATAAAAATATACAT [GTGCAC_site9743],9.89
20,TTATAATAAGATTGTTGTACTTATATTCCTTCTATA [XGTACX_site3173],9.64
21,TGTTTTGTATATATAGCATGCAGTAAGGGAAAAAAA [TGCATGCA_site652],9.45
22,TAGTTATAAGAGTTACAAAGAATACCGGAAATATAG [CACACA_negctrl_site1829],9.76

row,Sequence,gcPBM binding intensity (ln)
1,TCGTTTCATATTTATCATGAGATAATCACACGAACA [TGCATGCA_negctrl_site497],9.36
2,CTCCATATGAAACACACACACAAATGAAAAAAATAT [CACACA_site3018],11
3,AATTAACAAAGACACACACACACACGCACAAAAAAA [CACACA_site6388],10.7
4,TTTAAAAAAATATATACACACATATATATATATATA [CACACA_site617],9.68
5,ATAGAAATAAAATAAAATAAAAAAAAAATAATGAAA [CACACA_negctrl_site1565],9.77
6,ATATATAATAAATACACACACATGTATTTATAAATA [CACACA_site5135],9.9
7,TGAATTATAAATTATAGTACTTTATAATATGAACAT [XGTACX_site2317],9.55
8,ATATAAATAAATTAGTGAAAAAAAAAAAATTTTTTT [CACACA_negctrl_site945],9.48
9,TCTGTGCACGCATGAAGTACAAAAAAGGTTTCCAGT [XGTACX_site5049],9.71
10,CTATATACTAAATGCACACTTATATATTTATATATA [CACACA_site2454],9.75
11,TATATTTTTTTAATATGTACATATATATATAAAACA [XGTACX_site2171],9.39
12,CATATATATATATATTGTACAAGATTGTTTTTTTAT [XGTACX_site3913],9.68
13,ATGATCATAAGACACACACACAAAAAAAAAAAAAAA [CACACA_site6936],10.1
14,TTATATATCTATAATACACACATAATAATATATTTA [CACACA_site7423],9.59
15,GCTACGTAAAAAATATGTACATATGAAATATTTTGC [XGTACX_site5111],9.54
16,TTTCATTGGTTTATAAAATTATGAGATCTTAAAGAC [CACACA_negctrl_site1484],9.36
17,TCTGTAAAGTAATGGACACACAATATATCCATTTAT [CACACA_site1536],9.83
18,ATATATATATATATATGTACATATATTTATATTTAT [XGTACX_site6179],9.56
19,GAATAATATGGACATACACACATATACATACAGATA [CACACA_site5200],10.5
20,ATGCATAAATTTTGAAGTACAAAAAAAAAAAATAAA [XGTACX_site7282],9.51
21,ATACATATATAAATACGTACATATATAATTATATAT [XGTACX_site8178],9.75
22,AAATGAGAAGAAATACGTACATATAATAAAATAATT [XGTACX_site4439],9.79

row,Sequence,gcPBM binding intensity (ln)
1,CATGTAATATTAAACACACACTCATATAACTCAATA [CACACA_site4212],10.1
2,CACATATACTTCTGTGCACACGAATATTTTTCTTCT [CACACA_site1408],10
3,AAAATATAATATAATGCACACATAAACAAAAAAAAA [CACACA_site8161],9.96
4,TTTTTTTTTTTTTTGGGTACATAATAATAACAAGTG [XGTACX_site1034],9.23
5,TTTTATTTAACTCATAATTTTTTAAAAAACAATTAT [XGTACX_negctrl_site19],9.56
6,CATACAGTATTATACTGTACCCATACAAAAAAATAT [XGTACX_site6130],9.6
7,AAATAAAAAAAATTTGCACACCTTCAAAGTAATATA [CACACA_site1583],9.71
8,CTTATTTAAGAGTATGAACACACATCATACACATAT [CACACA_site9205],10
9,TTTTTAATATTCTATGCATGCATCGCATATTTGGTT [TGCATGCA_site1004],9.74
10,TTAACATTATATGAAGGTACAGAAAAAAAAAAATTA [XGTACX_site8530],9.52
11,TTTCTTATAGATTTTAATCCTCTATCAAAAAAAGAA [GTGCAC_negctrl_site162],9.01
12,AACAAATAAAGCTATGACATGTTAAAATTGTTTCAC [XGTACX_negctrl_site67],9.75
13,ATATCTAAATATATTACACACAGATATCTTCCTATA [CACACA_site3701],9.87
14,ATAAAGGAATTTTATACACACAACATATAAATATAT [CACACA_site7365],9.88
15,AGAGAAAAATATTTGGACAAAAATAATATAATATAT [CACACA_negctrl_site656],9.58
16,ATTCGTATGAGCATAACACACAATATCGATATTTCT [CACACA_site4165],9.88
17,TCTTTTCAATTATCCTATATTCTTTTATTTTTAATT [GTGCAC_negctrl_site326],9.79
18,CATACACCCATACATACACACATACATACACCCATA [CACACA_site5124],10.4
19,ATAAAACAACAAAGAAAATGAAAAAGTAAAAACATA [CACACA_negctrl_site596],9.85
20,TATTTATAAAAAGATTGTACATTTTTTATTATTGTA [XGTACX_site6016],9.4
21,TCCTATAATAACGTCACACATTAAATTTAATAAATT [CACACA_site4506],9.59
22,TATACAAAATATTTTACACACACATATATATACATA [CACACA_site2616],10.1
